One assay addresses HNRNPC (UniProt P07910). The conditions noted are these: DSSO, in cells.
The target of a further assay is PSPC1 (UniProt Q8WXF1). The note with it: DSSO.

Not every entry of the source has a single result; some have several. They are shown here; other results are not. The source may hold further records. Some entries list several cross-links; each record is another pair of residues.

Regarding HNRNPDL, O14979, the cross-linked residues entry in the assay with HNRNPC was “S300 - K176 and K302 - K8”.
As for NONO, Q15233, the cross-linked residues result with PSPC1 is “K99 - K8 and K99 - K14 and K249 - K344”.

The record behind these values is paper PMC13423814.
